Reference: ChEMBL document CHEMBL4888484, “Replenishing the malaria drug discovery pipeline: Screening and hit evaluation of the MMV Hit Generation Library 1 (HGL1) against asexual blood stage Plasmodium falciparum ,using a nano luciferase reporter read-out” (2022)
About 540 (0.36%) of roughly 150,000 compounds showed an effect of 50% or more. Some of the results follow.

test system: Plasmodium falciparum; experiment: Primary screen in NF54 nanoGlo assay, in single point, at 2uM, 72h; a lower Z score goes with more inhibition; type: functional, Erythrocyte; conditions: timepoint 72 hour

| SMILES | % Inhibition [%] | Z score |
| --- | --- | --- |
| CNC(=O)[C@@H]1C[C@@H](Nc2ncccn2)CN1Cc1ccc2c(c1)OCCO2 | -3 | 0.52 |
| CC1CCC2(CC1)OC[C@@H](C(=O)N1CCCN(C)CC1)N2C(=O)c1ccccc1F (stereo partly drawn) | 1 | -0.19 |
| CCN1CCCN(S(=O)(=O)Cc2cccc(Cl)c2)CC1 | 6 | -0.77 |
| CC(=O)NCCN1CCc2[nH]nc(-c3ccc(-c4ccccc4)cc3)c2C1 | 6 | -1 |
| COc1ccccc1NC(=O)Cn1nc2c(N(C)C)nc3ccccc3n2c1=O | -12 | 1.63 |
| Cc1cc(C)n2nc(N3CCNCC3)c(S(=O)(=O)c3ccccc3)c2n1 | -3 | 0.35 |
| O=C(CC1CCN(C(=O)c2ccc3oc(-c4ccccc4)nc3c2)CC1)NCc1ccc(F)cc1 | -2 | 0.18 |
| COCCNCCOc1cccc(C)c1 | -16 | 2.04 |
| CCC[C@H](NC(=O)Nc1cccc2nnc(C)cc12)c1nccn1C | 7 | -0.96 |
| Cc1c(CNC2CCC(C)CC2)c(C(=O)O)c(C)n1Cc1cccc(F)c1 (stereo not drawn) | -7 | 0.92 |
| Cc1cc(C)c(N2CC[C@H](NC(=O)c3cnn(C)c3)C2=O)c(C)c1 | 4 | -0.8 |
| O=C(c1csnn1)N1CCOC12CCCCC2 | 3 | -0.39 |
| O=C1CC(C(=O)N2CC3CCCCC3C2)CCN1 (stereo not drawn) | 33 | -3.78 |
| O=C(NCc1ccc(Cl)cc1Cl)c1ccc(NS(=O)(=O)c2ccc(F)c(F)c2)cc1 | -7 | 0.75 |
| O=C(c1cc(=O)[nH]c2ccccc12)N1CCC(Nc2ncccn2)CC1 | -13 | 2.65 |
| CC(NC(=O)N(C)CC1CCN(C)C1)c1ccc(OC(F)F)cc1 (stereo not drawn) | -3 | 0.49 |
| Cc1noc([C@H]2CCCN(C(=O)N3CCc4ccccc43)C2)n1 | -5 | 0.57 |
| Cc1ccc(CN2c3ccc(F)cc3OC[C@@H]2CC(=O)NCc2ccc(Cl)cc2)cc1 | -9 | 1.22 |
| COc1ccc(S(=O)(=O)N2CCOCC2)cc1NC(=O)C1(CC(=O)NC2CC2)CCCC1 | -6 | 0.8 |
| Cc1cccc(C)c1OC[C@@H](O)CN1CCN(c2nccs2)CC1 | -1 | 0.08 |
| CC(C)CNCc1ccc(C(=O)O)cc1 | -10 | 1.46 |
| C[C@H]1[C@@H](NC(=O)C(F)(F)F)CCCN1c1ccc2nnc(C(F)(F)F)n2n1 | -1 | 0.17 |
| CC(C)CN(C1CCOCC1)C1CN(Cc2ccccc2F)C1 | -12 | 2.33 |
| COc1ccc(C2CCCN2C(=O)C2CNCCO2)cc1OC (stereo not drawn) | -2 | 0.28 |
| CC1CN(C(=O)OCC(F)(F)F)CC[S+]([O-])C1 (stereo not drawn) | -2 | 0.21 |
| CC1(C)C(=O)Nc2ccc(C(=O)NC3(c4ccccc4)COC3)cc21 | -20 | 3.04 |
| CC(C)(C)NC(=O)c1nsc(Cl)c1Cl | -11 | 1.38 |

| SMILES | % Inhibition [%] | Z score |
| --- | --- | --- |
| Cn1ncc2cc(NC(=O)N3CCCN(C(=O)C(F)(F)F)CC3)ccc21 | -7 | 1.13 |
| CN(C[C@H]1CCCN(c2ncncc2Br)C1)S(C)(=O)=O | -1 | 0.17 |
| Cn1nccc1CNC(=O)c1ccc(-c2ccco2)[nH]c1=O | -16 | 1.43 |
| CCS(=O)(=O)N1CCC(N(Cc2ccc(F)cc2)C(=O)CN(C2CC2)S(=O)(=O)c2ccc(C)cc2)CC1 | -11 | 1.06 |
| COCc1cc(NCCc2ccc3c(c2)OCO3)ncn1 | -5 | 0.59 |
| CCOc1cccc(C[C@@H]2CC[C@H](CN3CCN(C(C)=O)CC3)O2)c1 | -13 | 1.64 |
| CCOc1ccc(-c2nc(C(=O)NCc3ccco3)cs2)cc1OC | -7 | 0.66 |
| Cc1nc(CN2C(=O)N[C@@](C)(c3ccc(Cl)s3)C2=O)no1 | -12 | 1.05 |
| CNC(=O)Cn1cc(-c2c(C)n[nH]c2C)cn1 | 2 | -0.3 |
| C=CCN(CCOC)C(=O)c1ccoc1 | -3 | 0.41 |
| O=S(=O)(NC1CCCCC1)c1cc(-c2nc(-c3ccc(Cl)cc3)no2)cs1 | -11 | 1.91 |
| Cc1cccc(C(=O)N2CCC3(CC2)OC[C@@H](C(=O)N2CCN(C)CC2)N3C(=O)c2ccc(F)cc2)c1 | -4 | 0.47 |
| CN1C(=O)C(=O)N(CN2CCC(Cc3ccccc3)CC2)C1=O | -13 | 1.82 |
| O=C(C1C2CCC(O2)C1C(F)(F)F)N1CCc2ccnc(O)c2C1 (stereo not drawn) | 1 | -0.09 |
| COc1ccc(-c2noc(Cn3cnc4ccccc4c3=O)n2)cc1 | -14 | 1.86 |
| Cc1ccc([C@H]2C=NN(c3ccc(Br)cc3)C2=O)cc1 | 76 | -2.14 |
| CN(CCO)C(=O)Nc1cc(Cl)c(Cl)cc1F | -5 | 1.02 |
| COc1ccccc1N1CCN(C(=O)c2cc(-c3c(C)nn(C)c3C)[nH]n2)CC1 | 1 | -0.08 |
| N#Cc1c2n(c(=O)n(CCOc3ccc(Cl)cc3)c1=O)CCC2 | -26 | 4.4 |
| O=C(CCC1CCOC1)N1CCOCC1c1noc(-c2ccccc2)n1 (stereo not drawn) | -12 | 2.37 |
| Cc1nnsc1C(=O)NCc1ccc(-c2ccoc2)cc1 | -20 | 2.24 |
| O=C(NC[C@]1(O)CCCc2occc21)Nc1ccccc1C(F)(F)F | 19 | -2.4 |
| CN(Cc1nnn(CC(=O)N2CCCc3ccccc32)n1)C(=O)c1ccccc1 | -11 | 1.49 |
| COC(=O)CC1CCCN1C(=O)c1cn2c(n1)CCC(C)C2 (stereo not drawn) | 7 | -1.39 |
| CC(=O)Nc1ccc(C(=O)N2CCC3(CC2)CC3(F)F)cc1 | -8 | 1.61 |
| O=C1CN(c2cc([C@H]3CCOC3)nc(N3CC(O)C3)n2)CCN1 | -9 | 1.01 |
| Cc1cc(C)c(S(=O)(=O)Nc2ccc3c(c2)CCCN3S(=O)(=O)c2cccs2)cc1C | 6 | -0.58 |
